Results published in PubChem BioAssay AID624296 (National Center for Advancing Translational Sciences (NCATS), 2012).
The campaign covered roughly 350,000 compounds. About 9,900 (2.8%) were called active. This list was built around the results that the source calls inconclusive (neither active nor inactive); the mix of calls is not that of the screen. The call rests on the fitted dose curve; in most records, active means well fitted activation curve with a large enough effect; inconclusive means small, poorly fitted or top-dose-only effect; inactive means no such curve, though single readings can be large or run the other way. Potencies of inconclusive entries are left out as doubtful fits.

Test: A quantitative high throughput screen for small molecules that induce DNA re-replication in MCF 10a normal breast cells. Further: nearly all actives have a fitted effect of over 50% in size. On activity, positive = re-replication: % of control where 0% means no effect.
Details: MCF 10A DNA re-replication, Hoechst nuclear intensity, 48 h; activity, positive = re-replication: at 46.1 µM (top of the series)
Potency means the concentration at half of the fitted maximal effect; tags describe the fitted curve by direction and shape.

Compound | Potency | activity, positive = re-replication
COc1ccc(/C=C/c2ccncc2)cc1OC | inactive | 
COc1ccc(NS(=O)(=O)c2ccc(-c3n[nH]c(=S)n3Cc3ccccc3)cc2)cc1 | inactive | 
COc1cccc(C2CC(c3cccs3)=NN2C(=S)Nc2ccccc2)c1OC (stereo not given) | inactive | 
Cc1nn(CCC(N)=S)c2nc(-c3cccs3)cc(C(F)(F)F)c12 | inconclusive [activator, single point] | 
COc1ccc(N(C)S(=O)(=O)c2cccc(C(=O)N3CCN(Cc4ccc5c(c4)OCO5)CC3)c2)cc1 | inconclusive [activator, single point] | 
CCN(CC)c1nc2ccccc2nc1C(C#N)C(=O)NCCc1ccccc1 (stereo not given) | active: 18.4 µM | 
Cc1csc(NC(=O)c2cccnc2)n1 | inconclusive [activator, partial curve, poor fit] | 
Fc1ccc(N2CCN(c3nc(-c4ccco4)cc(C(F)(F)F)n3)CC2)cc1 | inconclusive [activator, partial curve, poor fit] | 
Cc1nnc(SCC(=O)Nc2ccc(O)cc2)c2ccccc12 | inconclusive [activator, single point] | 
CN(C)S(=O)(=O)c1cccc(NC(=O)CSc2nc3c(cc2C#N)C(=O)CC(C)(C)C3)c1 | active: 14.6 µM | 
O=C(O)c1cc(N/N=C/c2c(O)ccc3ccccc23)ccc1Cl | inactive | 
O=C(/C(=C/c1ccccc1)n1cncn1)c1ccc(Cl)cc1Cl | inconclusive [activator, single point] | 
CC(C)C(=O)NC(NC(=S)NC1CCS(=O)(=O)C1)C(Cl)(Cl)Cl (stereo not given) | inconclusive [activator, single point] | 
CCCC(=O)NC(=S)Nc1cccc(Cl)c1N1CCCCC1 | inconclusive [activator, single point] | 
COc1ccccc1C/C(N)=N/OC(=O)COc1cccc2ccccc12 | inconclusive [activator, partial curve, poor fit] | 
CC(=O)N1CCC2(CC1)CC(=O)c1cc(Cl)ccc1O2 | inactive | 
Cn1c(SC2=CS(=O)(=O)c3ccccc32)nc2ccccc21 | inconclusive [activator, full curve, poor fit] | 
C=CCSc1nnc(C)c(/C=C/Nc2ccc(Cl)cc2)n1 | active: 20.6 µM | 
CCOc1ccccc1NC(=O)CN1CCc2ccccc2C1 | inconclusive [activator, single point] | 
NC(=O)[C@@H]1CC2(CC(c3cccc(NC(=O)COc4ccc(Cl)cc4)c3)=NO2)CN1C(=O)c1ccccc1 (stereo not given in full) | inactive | 
CCCCC(O)CN1CCC(c2ccccc2)CC1 (stereo not given) | inactive | 
O=C(COc1ccccc1Cl)Nc1ccc(C(=O)O)cc1NC(=O)COc1ccccc1Cl | inconclusive [activator, single point] | 
COc1ccc(N2CCN(C3CCCN(Cc4ccc(F)cc4Cl)C3)CC2)cc1 (stereo not given) | inconclusive [activator, single point] | 
CC(C)(C)NC(=O)C(c1ccc(OCC(N)=O)cc1)N(C(=O)c1cccnc1)C1CC1 (stereo not given) | inconclusive [activator, single point] | 

Compound | Potency | activity, positive = re-replication
CCC[C@@H](CN1CCC[C@H]1CN1C(N)=NC[C@H]1C(C)C)N1C[C@@H]([C@H](C)CC)N(CCCC2CCCC2)C1=N | inactive | 
CCC1=C(c2cc(OC)c(OC)c(OC)c2)C2(CCCC2)C(=O)O1 | inconclusive [activator, full curve, poor fit] | 
O=C(Nc1ccc(Br)cn1)c1ccc2nccnc2c1 | inconclusive [activator, partial curve] | 
COc1ccc(-c2oc3cc(O)c(OC)c(O)c3c(=O)c2OC)cc1 | active: 5.17 µM | 
S=C(NCCSCc1ccccc1Cl)Nc1ccccc1 | active: 12.6 µM | 
COC(=O)Cc1c(C)c2ccc(OCC(=O)N(C)C3CCS(=O)(=O)C3)cc2oc1=O (stereo not given) | inactive | 
O=C(O)COc1ccccc1/C=N/NC(=O)CNC(=O)c1ccco1 | inactive | 
COc1ccc(N(CC(=O)NCCSc2ccccn2)S(=O)(=O)c2ccc(C)cc2)cc1OC |  | inconclusive: -27.8% [activator]
CN1CCN(c2ccc(CNS(=O)(=O)c3ccc(F)cc3Cl)cc2)CC1 | inactive | 
Cc1cccc(N2C(=O)/C(=C/c3cccnc3)SC2=S)c1 | inconclusive [activator, single point] | 
Cc1ccc(OCC(=O)NCCCNC(=O)c2ccncc2)cc1 | inconclusive [activator, full curve, poor fit] | 
CCN1CCN(c2cc(C)c3cc(NC(=O)c4ccc(Br)o4)ccc3n2)CC1 | inconclusive [activator, full curve, poor fit] | 
O=C1C2CCCN2C(=O)N1CCCN1CCN(c2cccc(Br)c2)CC1 (stereo not given) | inconclusive [activator, single point] | 
Cc1cccc(NC(=O)C2CCCN(S(=O)(=O)c3ccc4[nH]c(=O)ccc4c3)C2)n1 (stereo not given) | inactive | 
CC1(C2CC2)NC(=O)N(CC(=O)Nc2ccc(Cl)c([N+](=O)[O-])c2)C1=O (stereo not given) | inconclusive [activator, single point] | 
Cn1c(=O)c2c(nc(NCc3ccco3)n2CC(O)COc2ccccc2)n(C)c1=O (stereo not given) | inactive | 
CN(C)c1ncnc2c1ccn2C1OC(CO)C(O)C1O (stereo not given) | active: 2.31 µM | 
COc1cc2c(cc1OC)C(c1ccc(Br)cc1)CC(=O)N2 (stereo not given) | active: 0.651 µM | 
CCCC1(c2ccccc2)NC(=O)N(CC(=O)NCc2ccc(OC)cc2)C1=O (stereo not given) | inactive | 
COc1cccc(C(=O)Nc2ccc(NC(=O)c3cc4ccccc4o3)c(OC)c2)c1 | active: 10.3 µM | 
O=c1c(CN2CCN(Cc3ccccc3)CC2)coc2ccc(Cl)cc12 | inconclusive [activator, partial curve, poor fit] | 
O=C(NCc1ccco1)c1ccc([N+](=O)[O-])o1 | inconclusive [activator, single point] | 
CCOc1ccc(C(=O)CC(Sc2ccc(C)cc2)C(=O)O)cc1 (stereo not given) | inconclusive [activator, single point] | 
O=C(N/N=C/c1cccc(Oc2ccccc2)c1)c1cccc(O)c1 | inconclusive [activator, single point] | 

Compound | Potency | activity, positive = re-replication
O=C(N/N=C/c1ccc(Br)o1)/C(=C/c1ccc([N+](=O)[O-])cc1)NC(=O)c1ccccc1 | inconclusive [activator, single point] | 
C=C(C)c1cccc(C(C)(C)NC(=O)Nc2ccc(Cl)cn2)c1 | inconclusive [activator, single point] | 
CCC(C)(C)n1nnnc1CN1CCN(c2nc3cc(OC)ccc3cc2C#N)CC1 | inconclusive [activator, full curve, poor fit] | 
CCOC(=O)Cc1c(C)nc2c(-c3ccc(Cl)cc3)cnn2c1C | inconclusive [activator, single point] | 
COCc1c(C(=O)NC2CCCCC2)sc2cccc(F)c12 | inconclusive [activator, full curve, poor fit] | 
Cc1ccc(N/C=C2/Sc3ccccc3NC2=O)cc1 | active: 18.4 µM | 
O=C(c1cc(-c2ccco2)nc2ccccc12)N1CCN(Cc2ccccc2)CC1 | inconclusive [activator, partial curve, poor fit] | 
C=CCn1c(SCc2ccccc2)nc2scc(-c3ccc(C)o3)c2c1=O | inconclusive [activator, partial curve, poor fit] | 
Cc1cc(C(=O)COC(=O)c2ccc(O)cc2O)c(C)n1-c1ccc(OC(F)F)cc1 | inconclusive [activator, single point] | 
CCOC(=O)C1=C(C)N(C)C(=S)NC1c1cccc(Cl)c1Cl (stereo not given) | inactive | 
COC(=O)c1c(NC(=O)/C=C/C(=O)O)sc(C)c1-c1ccc(C)cc1 | inconclusive [activator, single point] | 
Cc1ccc(C)c(-n2nnnc2SCC(=O)c2ccc3c(c2)NC(=O)CO3)c1 | inconclusive [activator, single point] | 
Cc1ccc(NC(=O)N2CCCC2C(=O)Nc2ccc3c(c2)OCO3)cc1 (stereo not given) | inactive | 
COc1cc(/C=C2\CCC(C3CCCC3)C2=O)ccc1OC(C)C (stereo not given) | inconclusive [activator, partial curve, poor fit] | 
O=C(c1ccncc1)N1CCCC(N2CCN(c3ccc(F)cc3)CC2)C1 (stereo not given) | inactive | 
Cn1cc(CN2CCc3ccccc3C2)c2ccccc21 | inconclusive [activator, partial curve, poor fit] | 
Cc1ccc(-n2nnnc2-c2cnc3ccc(Cl)cc3c2-c2ccccc2)cc1 | active: 20.6 µM | 
Cc1cccc(/C=C2\Sc3ccc(C(=O)N4CCC(C)CC4)cc3N(C)C2=O)c1 | inconclusive [activator, partial curve] | 
O=C1N(Cc2ccc(F)cc2Cl)c2ccccc2C12OCCCO2 | inactive | 
O=S(=O)(NCc1ccccc1)c1ccc(Br)s1 | inconclusive [activator, single point] | 
O=C(Nc1cccc(NC(=O)c2ccco2)c1)c1ccccc1 | inactive | 
CCCN(CCC)S(=O)(=O)c1ccc(C(=O)NNC(=O)c2cc(OC)c(OC)c(OC)c2)cc1 | inconclusive [activator, partial curve, poor fit] | 
